# The supplement of paper PMC8728848
# This is one part of the list.
# Experiments:
# Test in all cases: glycan array binding signal (z-score within array); higher = stronger binding
# Conditions in all cases: glycan notation: IUPAC condensed, linker removed
# [1] = target: Gal(b1-4)GlcNAc(b1-2)[Gal(b1-4)GlcNAc(b1-6)]Man(a1-6)[GlcNAc(b1-4)][Gal(b1-4)GlcNAc(b1-2)[Gal(b1-4)GlcNAc(b1-4)]Man(a1-3)]Man(b1-4)GlcNAc(b1-4)[Fuc(a1-6)]GlcNAc
# Outline: (§1)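 From the Consortium for Functional Glycomics database, 3228 arrays were curated, keeping only those whose protein sequence was available. Binding is given as a within-array Z-score averaged across arrays sharing a protein sequence and across linkers. Negative Z-scores can be read as non-binding.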
# [2] = target: Gal(b1-4)GlcNAc(b1-3)Gal(b1-3)GalNAc
# Outline: as §1
# [3] = target: Gal(b1-4)GlcNAc(b1-3)Gal(b1-3)GlcNAc
# Outline: as §1
# [4] = target: Gal(b1-4)GlcNAc(b1-3)Gal(b1-4)Glc
# Outline: as §1
# [5] = target: Gal(b1-4)GlcNAc(b1-3)Gal(b1-4)GlcNAc
# Outline: as §1
# [6] = target: Gal(b1-4)GlcNAc(b1-3)Gal(b1-4)GlcNAc(b1-2)Man(a1-3)[Gal(b1-4)GlcNAc(b1-3)Gal(b1-4)GlcNAc(b1-2)Man(a1-6)]Man(b1-4)GlcNAc(b1-4)GlcNAc
# Outline: as §1
# [7] = target: Gal(b1-4)GlcNAc(b1-3)Gal(b1-4)GlcNAc(b1-2)Man(a1-3)[Gal(b1-4)GlcNAc(b1-3)Gal(b1-4)GlcNAc(b1-2)Man(a1-6)]Man(b1-4)GlcNAc(b1-4)[Fuc(a1-6)]GlcNAc
# Outline: as §1
# [8] = target: Gal(b1-4)GlcNAc(b1-3)Gal(b1-4)GlcNAc(b1-2)[Gal(b1-4)GlcNAc(b1-3)Gal(b1-4)GlcNAc(b1-6)]Man(a1-6)[Gal(b1-4)GlcNAc(b1-3)Gal(b1-4)GlcNAc(b1-2)Man(a1-3)]Man(b1-4)GlcNAc(b1-4)GlcNAc
# Outline: as §1
# [9] = target: Gal(b1-4)GlcNAc(b1-3)Gal(b1-4)GlcNAc(b1-2)[Gal(b1-4)GlcNAc(b1-3)Gal(b1-4)GlcNAc(b1-6)]Man(a1-6)[Gal(b1-4)GlcNAc(b1-3)Gal(b1-4)GlcNAc(b1-2)Man(a1-3)]Man(b1-4)GlcNAc(b1-4)[Fuc(a1-6)]GlcNAc
# Outline: as §1
# [10] = target: Gal(b1-4)GlcNAc(b1-3)Gal(b1-4)GlcNAc(b1-3)Gal(b1-4)GlcNAc
# Outline: as §1
# [11] = target: Gal(b1-4)GlcNAc(b1-3)Gal(b1-4)GlcNAc(b1-3)Gal(b1-4)GlcNAc(b1-2)Man(a1-3)[Gal(b1-4)GlcNAc(b1-3)Gal(b1-4)GlcNAc(b1-3)Gal(b1-4)GlcNAc(b1-2)Man(a1-6)]Man(b1-4)GlcNAc(b1-4)GlcNAc
# Outline: as §1
# [12] = target: Gal(b1-4)GlcNAc(b1-3)Gal(b1-4)GlcNAc(b1-3)Gal(b1-4)GlcNAc(b1-2)Man(a1-3)[Gal(b1-4)GlcNAc(b1-3)Gal(b1-4)GlcNAc(b1-3)Gal(b1-4)GlcNAc(b1-2)Man(a1-6)]Man(b1-4)GlcNAc(b1-4)[Fuc(a1-6)]GlcNAc
# Outline: as §1
# [13] = target: Gal(b1-4)GlcNAc(b1-3)Gal(b1-4)GlcNAc(b1-3)Gal(b1-4)GlcNAc(b1-2)[Gal(b1-4)GlcNAc(b1-3)Gal(b1-4)GlcNAc(b1-3)Gal(b1-4)GlcNAc(b1-6)]Man(a1-6)[Gal(b1-4)GlcNAc(b1-3)Gal(b1-4)GlcNAc(b1-3)Gal(b1-4)GlcNAc(b1-2)Man(a1-3)]Man(b1-4)GlcNAc(b1-4)[Fuc(a1-6)]GlcNAc
# Outline: as §1
# [14] = target: Gal(b1-4)GlcNAc(b1-3)Gal(b1-4)GlcNAc(b1-3)Gal(b1-4)GlcNAc(b1-3)Gal(b1-4)GlcNAc(b1-2)Man(a1-3)[Gal(b1-4)GlcNAc(b1-3)Gal(b1-4)GlcNAc(b1-3)Gal(b1-4)GlcNAc(b1-3)Gal(b1-4)GlcNAc(b1-2)Man(a1-6)]Man(b1-4)GlcNAc(b1-4)GlcNAc
# Outline: as §1
# [15] = target: Gal(b1-4)GlcNAc(b1-3)Gal(b1-4)GlcNAc(b1-3)Gal(b1-4)GlcNAc(b1-3)Gal(b1-4)GlcNAc(b1-2)Man(a1-3)[Gal(b1-4)GlcNAc(b1-3)Gal(b1-4)GlcNAc(b1-3)Gal(b1-4)GlcNAc(b1-3)Gal(b1-4)GlcNAc(b1-2)Man(a1-6)]Man(b1-4)GlcNAc(b1-4)[Fuc(a1-6)]GlcNAc
# Outline: as §1
# [16] = target: Gal(b1-4)GlcNAc(b1-3)Gal(b1-4)GlcNAc(b1-3)Gal(b1-4)GlcNAc(b1-3)Gal(b1-4)GlcNAc(b1-2)[Gal(b1-4)GlcNAc(b1-3)Gal(b1-4)GlcNAc(b1-3)Gal(b1-4)GlcNAc(b1-3)Gal(b1-4)GlcNAc(b1-6)]Man(a1-6)[Gal(b1-4)GlcNAc(b1-3)Gal(b1-4)GlcNAc(b1-3)Gal(b1-4)GlcNAc(b1-3)Gal(b1-4)GlcNAc(b1-2)Man(a1-3)]Man(b1-4)GlcNAc(b1-4)[Fuc(a1-6)]GlcNAc
# Outline: as §1
# [17] = target: Gal(b1-4)GlcNAc(b1-3)Gal(b1-4)GlcNAc(b1-3)Gal(b1-4)GlcNAc(b1-3)Gal(b1-4)GlcNAc(b1-3)Gal(b1-4)GlcNAc(b1-2)Man(a1-3)[Gal(b1-4)GlcNAc(b1-3)Gal(b1-4)GlcNAc(b1-3)Gal(b1-4)GlcNAc(b1-3)Gal(b1-4)GlcNAc(b1-3)Gal(b1-4)GlcNAc(b1-2)Man(a1-6)]Man(b1-4)GlcNAc(b1-4)GlcNAc
# Outline: as §1
# [18] = target: Gal(b1-4)GlcNAc(b1-3)Gal(b1-4)GlcNAc(b1-3)Gal(b1-4)GlcNAc(b1-3)Gal(b1-4)GlcNAc(b1-3)Gal(b1-4)GlcNAc(b1-2)Man(a1-3)[Gal(b1-4)GlcNAc(b1-3)Gal(b1-4)GlcNAc(b1-3)Gal(b1-4)GlcNAc(b1-3)Gal(b1-4)GlcNAc(b1-3)Gal(b1-4)GlcNAc(b1-2)Man(a1-6)]Man(b1-4)GlcNAc(b1-4)[Fuc(a1-6)]GlcNAc
# Outline: as §1
# [19] = target: Gal(b1-4)GlcNAc(b1-3)Gal(b1-4)GlcNAc(b1-3)Gal(b1-4)GlcNAc(b1-3)Gal(b1-4)GlcNAc(b1-3)Gal(b1-4)GlcNAc(b1-2)[Gal(b1-4)GlcNAc(b1-3)Gal(b1-4)GlcNAc(b1-3)Gal(b1-4)GlcNAc(b1-3)Gal(b1-4)GlcNAc(b1-3)Gal(b1-4)GlcNAc(b1-6)]Man(a1-6)[Gal(b1-4)GlcNAc(b1-3)Gal(b1-4)GlcNAc(b1-3)Gal(b1-4)GlcNAc(b1-3)Gal(b1-4)GlcNAc(b1-3)Gal(b1-4)GlcNAc(b1-2)Man(a1-3)]Man(b1-4)GlcNAc(b1-4)[Fuc(a1-6)]GlcNAc
# Outline: as §1
# [20] = target: Gal(b1-4)GlcNAc(b1-3)Gal(b1-4)GlcNAc(b1-3)Gal(b1-4)GlcNAc(b1-3)Gal(b1-4)GlcNAc(b1-3)Gal(b1-4)GlcNAc(b1-3)Gal(b1-4)GlcNAc(b1-2)Man(a1-3)[Gal(b1-4)GlcNAc(b1-3)Gal(b1-4)GlcNAc(b1-3)Gal(b1-4)GlcNAc(b1-3)Gal(b1-4)GlcNAc(b1-3)Gal(b1-4)GlcNAc(b1-3)Gal(b1-4)GlcNAc(b1-2)Man(a1-6)]Man(b1-4)GlcNAc(b1-4)GlcNAc
# Outline: as §1
# [21] = target: Gal(b1-4)GlcNAc(b1-3)Gal(b1-4)GlcNAc(b1-3)GalNAc
# Outline: as §1
# [22] = target: Gal(b1-4)GlcNAc(b1-3)Gal(b1-4)GlcNAc(b1-3)[Gal(b1-4)GlcNAc(b1-3)Gal(b1-4)GlcNAc(b1-6)]GalNAc
# Outline: as §1
# [23] = target: Gal(b1-4)GlcNAc(b1-3)Gal(b1-4)GlcNAc(b1-6)[Gal(b1-3)]GalNAc
# Outline: as §1
binder,measurement,setting,value
Clrb (Mus musculus) (protein) ITGATKTEQIPVNKTYAACPQNWIGVENKCFYFSEYPSNWTFAQAFCMAQEAQLARFDNQDELNFLMRYKANFDSWIGLHRESSEHPWKWTDNTEYNNTIPIRGEERFAYLNNNGISSTRIYSLRMWICSKLNSYSLHCQTPFFPSGTKHHHHHHHHG,glycan array binding signal (z-score),[1],-0.087
same,glycan array binding signal (z-score),[2],-0.411
same,glycan array binding signal (z-score),[3],-0.508
same,glycan array binding signal (z-score),[4],-0.33
same,glycan array binding signal (z-score),[5],-0.321
same,glycan array binding signal (z-score),[6],-0.164
same,glycan array binding signal (z-score),[7],-0.495
same,glycan array binding signal (z-score),[8],0.09
same,glycan array binding signal (z-score),[9],-0.381
same,glycan array binding signal (z-score),[10],-0.398
same,glycan array binding signal (z-score),[11],-0.111
same,glycan array binding signal (z-score),[12],-0.301
same,glycan array binding signal (z-score),[13],-0.324
same,glycan array binding signal (z-score),[14],-0.166
same,glycan array binding signal (z-score),[15],0.109
same,glycan array binding signal (z-score),[16],-0.417
same,glycan array binding signal (z-score),[17],-0.264
same,glycan array binding signal (z-score),[18],-0.223
same,glycan array binding signal (z-score),[19],-0.263
same,glycan array binding signal (z-score),[20],-0.285
same,glycan array binding signal (z-score),[21],-0.351
same,glycan array binding signal (z-score),[22],-0.21
same,glycan array binding signal (z-score),[23],-0.469
